The text below walks through data of paper PMC4336329 (PLoS ONE, 2015).

Among all 310,000 compounds or so, about 2,200 (0.71%) showed an effect of 50% or more. Effects have a minus sign here. The list shows a part of the results.

human ether-à-go-go-related gene (hERG) potassium channel, sequence (Q12809 whole entry, looked up): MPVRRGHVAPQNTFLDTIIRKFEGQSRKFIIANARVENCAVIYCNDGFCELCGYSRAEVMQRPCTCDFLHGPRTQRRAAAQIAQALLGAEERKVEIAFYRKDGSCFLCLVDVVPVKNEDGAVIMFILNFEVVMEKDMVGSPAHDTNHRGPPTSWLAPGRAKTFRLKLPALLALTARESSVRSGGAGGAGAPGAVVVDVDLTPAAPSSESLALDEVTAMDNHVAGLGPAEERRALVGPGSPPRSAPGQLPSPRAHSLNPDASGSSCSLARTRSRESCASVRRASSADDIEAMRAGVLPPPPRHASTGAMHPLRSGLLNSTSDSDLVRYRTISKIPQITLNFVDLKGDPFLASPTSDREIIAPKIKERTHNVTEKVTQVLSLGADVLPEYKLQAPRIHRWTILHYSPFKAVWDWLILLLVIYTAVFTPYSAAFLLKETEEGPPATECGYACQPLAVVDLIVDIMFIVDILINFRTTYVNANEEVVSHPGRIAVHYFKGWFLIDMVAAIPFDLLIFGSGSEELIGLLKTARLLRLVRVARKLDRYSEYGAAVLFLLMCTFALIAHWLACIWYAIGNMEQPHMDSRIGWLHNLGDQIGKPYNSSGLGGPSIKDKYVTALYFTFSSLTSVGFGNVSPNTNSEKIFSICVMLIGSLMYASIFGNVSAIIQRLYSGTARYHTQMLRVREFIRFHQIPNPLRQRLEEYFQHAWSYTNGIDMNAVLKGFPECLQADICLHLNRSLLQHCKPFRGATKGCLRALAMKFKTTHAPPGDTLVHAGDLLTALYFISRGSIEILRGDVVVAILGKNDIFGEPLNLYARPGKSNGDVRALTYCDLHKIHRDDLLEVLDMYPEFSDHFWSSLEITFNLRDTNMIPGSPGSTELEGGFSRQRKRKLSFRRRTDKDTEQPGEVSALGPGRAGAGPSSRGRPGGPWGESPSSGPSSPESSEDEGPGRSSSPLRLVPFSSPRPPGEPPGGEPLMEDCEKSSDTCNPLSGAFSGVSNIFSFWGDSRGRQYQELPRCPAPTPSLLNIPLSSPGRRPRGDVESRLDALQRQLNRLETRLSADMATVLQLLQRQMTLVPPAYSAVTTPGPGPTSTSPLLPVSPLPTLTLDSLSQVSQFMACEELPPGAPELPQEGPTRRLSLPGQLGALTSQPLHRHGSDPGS

This assay addresses human ether-à-go-go-related gene (hERG) potassium channel (human, UniProt Q12809). Put plainly: primary screen, population patch clamp on CHO cells stably expressing hERG.
As to `Cc1c(C)c2ccc(OCC(=O)NCCCN3CCCC3=O)cc2oc1=O`, the “hERG current change (%, negative = inhibition) at 1uM” value is listed as 13.4%.
The same measure for `O=C(Nc1ccc(Br)cc1)C1CCCN(C2=NS(=O)(=O)c3ccccc32)C1` (stereo not drawn): -14%; for `COc1cnc(-c2ccccn2)nc1Oc1ccc(F)cc1F`: 1.83%.
In the case of `CC(CCc1ccccc1)NC(=O)Cn1cccc1C(=O)c1ccccc1` (stereo not drawn) it was 7.67%.
The same measure for `CCCc1cc(C(=O)OCC(=O)N2CCN(c3ccc(OC)cc3)CC2)sc1C`: -34.6%; for `O=C1CC(C(=O)Nc2ccccc2)C2(CCCCC2)O1` (stereo not drawn): 9.21%; for `N#Cc1c(NC(=O)CSc2nnc(-c3ccccc3)o2)sc2c1CCCC2`: 7.35%.
Turning to `O=C1CC(=O)CC(c2ccco2)C1`, the “hERG current change (%, negative = inhibition) at 1uM” value worked out at 8.27%.
The same measure for `CC1CCCN(C(=O)COc2ccc3c(c2)OCO3)C1` (stereo not drawn): 10.2%; for `CC(C)C[C@H](NC(=O)OC(C)(C)C)c1nnc(SCc2ccccc2)o1`: 5.32%.
In the case of `Cc1cc(NC(=O)C(C)SCC(=O)OCc2c(Cl)cccc2Cl)no1` (stereo not drawn) it was 7.55%; in that of `Cc1onc(-c2ccccc2Cl)c1C(=O)NC(=S)NCc1cccnc1`, 5.58%; in that of `O=C(NCCN1CCOCC1)c1c[nH]c2ccc(S(=O)(=O)N3CCOCC3)cc2c1=O`, 1.18%.
In the case of `Cc1cccc(C)c1NC(=O)COC(=O)c1cccnc1` it was 6.24%.
Take `C#CCOCCOCCOCCNc1nc(N2CCN(C(=O)CCCCCCCCCCNC(=O)Cn3cc(C[C@@H](C)O)nn3)CC2)nc(N2CCN(C(=O)CCCCCCCCCCNC(=O)[C@H](CCCCN)n3cc(C[C@@H](C)CC)nn3)CC2)n1`: the “hERG current change (%, negative = inhibition) at 1uM” value is 5.31%.
The same measure for `CCC1CN(C(=O)NCc2ccc(F)cc2)c2cc(C)ccc2O1` (stereo not drawn): 8.44%; for `CCn1c(=O)c(CCC(=O)N2CCN(c3ccccn3)CC2)c(C)c2c(C)nn(-c3cccc(C)c3)c21`: 19.8%.
In the case of `CC(C)(C)C1CCc2c(sc(NC(=O)C3CCCO3)c2C(N)=O)C1` (stereo not drawn) it was 0.567%; in that of `COc1ccc(C(=O)NC2CCCc3c2cnn3-c2cccc(C)c2C)o1` (stereo not drawn), -37.6%; in that of `O=C(OCC(=O)c1c[nH]c2ccccc12)c1cccc(O)c1`, 4.59%.
The same measure for `COc1cccc(CNS(=O)(=O)c2cc3c(cc2C)NC(=O)CO3)c1`: -0.176%; for `Cn1ncnc1SCc1cn2cccnc2n1`: 17.7%.
On to `Cc1ccc(N2C(=O)CSC2=S)cc1C`, for which the “hERG current change (%, negative = inhibition) at 1uM” value was determined as 8.86%.
Regarding `CC(Nc1ccc(F)cc1F)C(=O)NC(=O)NC1CCCCC1` (stereo not drawn), the “hERG current change (%, negative = inhibition) at 1uM” value is given as 15.1%.
